The other results are listed elsewhere or left out.

For the assay, the system named is HepG2. Description: cytotoxicity call (relative viability < 0.9). The following applies: 10 µM.
`COc1ccc(NC(=O)Nc2ccc3c(c2)C(=O)N([C@H](C)CO)C[C@H](C)[C@H](CN(C)Cc2ccc(Cl)c(Cl)c2)OCCCC[C@@H](C)O3)cc1`: the cytotoxicity call was “inactive”. Consider `O=C(C[C@H]1CC[C@H]2[C@@H](COC[C@@H](O)CN2Cc2ccccc2F)O1)N[C@@H]1CCN(Cc2ccccc2)C1`, for which the cytotoxicity call is “inactive”.

Turning to `COc1ccc(COC[C@]23N=C4SCCCN4[C@H](c4ccccc4O2)[C@H]3CO[Si](C)(C)C(C)(C)C)cc1`, the cytotoxicity call was “active”. Turning to `COc1ccc(S(=O)(=O)N(C)C[C@@H]2Oc3ccc(NC(=O)Nc4cccc5c4CCCC5)cc3CC(=O)N([C@@H](C)CO)C[C@@H]2C)cc1Cl`, the cytotoxicity call is “inactive”.

As for `NCCCC(O)(P(=O)(O)O)P(=O)(O)O`, the cytotoxicity call was “inactive”. With `C[C@@H]1CN([C@H](C)CO)C(=O)Cc2cc(NC(=O)CCN3CCOCC3)ccc2O[C@H]1CN(C)Cc1ccccc1`, the cytotoxicity call was “inactive”. For the compound `C[C@@H]1CN([C@H](C)CO)C(=O)c2cc(NC(=O)Cc3cn(C)c4ccccc34)ccc2O[C@@H]1CN(C)S(C)(=O)=O`, the cytotoxicity call is “inactive”.

Regarding `CC(C)NC(=O)N(C)C[C@@H]1Oc2ccc(NC(=O)C3CCCCC3)cc2C(=O)N([C@H](C)CO)C[C@@H]1C`, the cytotoxicity call was “inactive”.

As for `C[C@H]1CN([C@@H](C)CO)S(=O)(=O)c2ccc(-c3ccc(C#N)cc3)cc2O[C@H]1CN(C)C(=O)CN(C)C`, the cytotoxicity call was “inactive”. For the compound `C[C@@H]1CN([C@H](C)CO)C(=O)c2cc(NS(=O)(=O)c3ccc(F)cc3)ccc2O[C@H]1CN(C)CC1CC1`, the cytotoxicity call is “inactive”. As to `C[C@@H]1CN([C@@H](C)CO)C(=O)c2cccc(NC(=O)C3CC3)c2O[C@@H]1CN(C)S(=O)(=O)c1ccc(F)cc1`, the cytotoxicity call is “inactive”.
